{"sequences": {"note": "Chains of the proteins cited; added tags and fusions are not shown.", "UniProt P50148": "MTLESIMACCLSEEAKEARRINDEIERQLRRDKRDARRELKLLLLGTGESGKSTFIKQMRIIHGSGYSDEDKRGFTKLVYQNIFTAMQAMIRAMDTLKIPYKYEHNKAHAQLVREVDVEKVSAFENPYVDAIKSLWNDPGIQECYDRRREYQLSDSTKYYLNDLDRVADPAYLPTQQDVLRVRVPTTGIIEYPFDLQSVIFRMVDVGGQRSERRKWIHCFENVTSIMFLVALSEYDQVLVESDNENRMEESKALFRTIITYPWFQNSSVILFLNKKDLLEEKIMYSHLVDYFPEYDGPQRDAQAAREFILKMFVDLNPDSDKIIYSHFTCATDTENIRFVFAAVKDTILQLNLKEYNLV"}, "source": "paper PMC7468457", "key": {"HA-AT1R (human)": {"target": "HA-AT1R (human) (UniProt P30556)", "test": "co-IP; HEK293 lysates, equal Rluc input; anti-HA antibody and protein A agarose at 4°C; Rluc luminescence measured directly on the immunoprecipitates"}, "[1]": {"target": "AT1R-Rluc (AngII type 1 receptor fused to Renilla luciferase) (human) (UniProt P30556)", "test": "FRET or BRET; ligand-induced BRET in live HEK293 cells co-expressing an Rluc-tagged receptor (donor) and Venus-Gαq or yPET-β-arrestin 2 (acceptor), without or with untagged PAR1; AngII, thrombin or both, dose-response 30 min at 37°C or real-time kinetics; antagonists irbesartan or SCH79797 in some; coelenterazine h 2.5 µM; PBS"}, "[2]": {"target": "T1, PAR1-Rluc (protease-activated receptor 1 fused to Renilla luciferase) (human) (UniProt P25116)", "T1 sequence": "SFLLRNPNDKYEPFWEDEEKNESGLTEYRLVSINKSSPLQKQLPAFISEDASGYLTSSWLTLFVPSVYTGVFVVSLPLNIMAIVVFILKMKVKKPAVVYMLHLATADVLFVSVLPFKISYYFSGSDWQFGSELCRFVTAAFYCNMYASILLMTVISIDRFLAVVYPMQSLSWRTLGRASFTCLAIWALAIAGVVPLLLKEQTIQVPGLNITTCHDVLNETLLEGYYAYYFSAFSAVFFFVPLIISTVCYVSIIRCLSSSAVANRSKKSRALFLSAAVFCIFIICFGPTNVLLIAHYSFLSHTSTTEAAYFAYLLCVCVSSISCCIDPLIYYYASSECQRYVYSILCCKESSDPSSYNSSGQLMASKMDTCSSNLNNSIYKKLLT", "test": "FRET or BRET; ligand-induced BRET in live HEK293 cells co-expressing an Rluc-tagged receptor (donor) and Venus-Gαq or yPET-β-arrestin 2 (acceptor), without or with untagged PAR1; AngII, thrombin or both, dose-response 30 min at 37°C or real-time kinetics; antagonists irbesartan or SCH79797 in some; coelenterazine h 2.5 µM; PBS"}, "[3]": {"target": "AT1R-Rluc (AngII type 1 receptor fused to Renilla luciferase) (human) (UniProt P30556)", "test": "FRET or BRET; BRET saturation in live HEK293 cells: constant AT1R-Rluc (25 ng plasmid) with increasing PAR1-Venus or Grb2-Venus (10-175 ng); net BRET plotted over Venus/Rluc ratio; room temperature; PBS"}}, "note": "Results are given in words; binding and its absence hold for the method and conditions named. Binding seen in cells or lysates may run through a third protein. Some entries that bind do so weakly or less than the wild type. For some of these results: Tags and fused reporters may be left off the sequences shown."}
{"molecule": "AT1R-Rluc (AngII type 1 receptor fused to Renilla luciferase) (from UniProt P30556 1-359)", "values": [{"measurement": "binding", "setting": "HA-AT1R (human)", "result": "binds"}]}
{"molecule": "yPET-β-arrestin 2 (from UniProt P32121 1-409)", "values": [{"measurement": "binding", "setting": "[1]", "result": "binds"}]}
{"molecule": "Venus-Gαq (from UniProt P50148 1-359)", "values": [{"measurement": "binding", "setting": "[2]", "result": "binds"}]}
{"molecule": "Grb2-Rluc (from UniProt P62993 1-217)", "values": [{"measurement": "binding", "setting": "HA-AT1R (human)", "result": "no binding"}]}
{"molecule": "Grb2-Venus (from UniProt P62993 1-217)", "values": [{"measurement": "binding", "setting": "[3]", "result": "no binding"}]}
{"molecule": "PAR1-Venus (receptor, UniProt P25116 42-425) SFLLRNPNDKYEPFWEDEEKNESGLTEYRLVSINKSSPLQKQLPAFISEDASGYLTSSWLTLFVPSVYTGVFVVSLPLNIMAIVVFILKMKVKKPAVVYMLHLATADVLFVSVLPFKISYYFSGSDWQFGSELCRFVTAAFYCNMYASILLMTVISIDRFLAVVYPMQSLSWRTLGRASFTCLAIWALAIAGVVPLLLKEQTIQVPGLNITTCHDVLNETLLEGYYAYYFSAFSAVFFFVPLIISTVCYVSIIRCLSSSAVANRSKKSRALFLSAAVFCIFIICFGPTNVLLIAHYSFLSHTSTTEAAYFAYLLCVCVSSISCCIDPLIYYYASSECQRYVYSILCCKESSDPSSYNSSGQLMASKMDTCSSNLNNSIYKKLLT", "values": [{"measurement": "binding", "setting": "[3]", "result": "binds"}]}
{"molecule": "PAR1-Rluc (protease-activated receptor 1 fused to Renilla luciferase) (receptor, UniProt P25116 42-425) SFLLRNPNDKYEPFWEDEEKNESGLTEYRLVSINKSSPLQKQLPAFISEDASGYLTSSWLTLFVPSVYTGVFVVSLPLNIMAIVVFILKMKVKKPAVVYMLHLATADVLFVSVLPFKISYYFSGSDWQFGSELCRFVTAAFYCNMYASILLMTVISIDRFLAVVYPMQSLSWRTLGRASFTCLAIWALAIAGVVPLLLKEQTIQVPGLNITTCHDVLNETLLEGYYAYYFSAFSAVFFFVPLIISTVCYVSIIRCLSSSAVANRSKKSRALFLSAAVFCIFIICFGPTNVLLIAHYSFLSHTSTTEAAYFAYLLCVCVSSISCCIDPLIYYYASSECQRYVYSILCCKESSDPSSYNSSGQLMASKMDTCSSNLNNSIYKKLLT", "values": [{"measurement": "binding", "setting": "HA-AT1R (human)", "result": "binds"}]}
